About 120 (0.25%) of roughly 48,000 compounds were called active. Not shown: some 4% with an inconclusive outcome. Calls follow the shape of the dose curve; as a rule, active = well fitted activation curve with a large enough effect; inconclusive = small, poorly fitted or top-dose-only effect, or another doubt; inactive = no such curve, though single readings can be large or run the other way. Some of the results follow.
assay: Primary qHTS for Identification of Small Molecule Activators of Huntingtin-Antisense Promoter Activity; conditions: HEK293 HTT-AS promoter firefly luciferase reporter, 24 h; series mostly up to 57.5 µM; activity change, positive = activation: at the top concentration; also: nearly all actives have a fitted effect of over 55% in size
How it was run: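 HEK293 luciferase promoter-reporter cells (2,500/well) plated 24 h, then compounds added at up to 57.5 uM final for 24 h at 37 °C. Firefly luminescence by Dual-Glo, normalized to vehicle (0%) and zero RLU (-100%).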

Activity change, positive = activation, inactive:
COc1ccc(NC(=O)CSc2nc(-c3ccco3)cc(C(F)(F)F)n2)cc1Cl -34.6%
COc1ccc(-n2ncc(C(=O)N3CCOCC3)c2C2CCN(C(=O)OC(C)(C)C)CC2)cc1 2.92%
CCCCS(=O)(=O)c1nc(-c2ccc(Br)cc2)cc(-c2ccccc2)c1C#N -43.8%
Cn1c(=O)c2sccc2n2c(CCCC(=O)NCc3ccccc3)nnc12 -10.5%
C[C@@H]1CC[C@@]2(OC1)O[C@H]1C[C@H]3[C@@H]4CC[C@H]5C[C@@H](O)CC[C@]5(C)[C@H]4CC(=O)[C@]3(C)[C@H]1[C@@H]2C -1.28% [at 6 µM, percent change from vehicle, -100% = no light]
Cc1cccc(NC(=O)CCc2c(C)nc3c(c(C)nn3C(C)(C)C)c2C)c1C -50.4%
O=C1COc2ccc(-c3cc(-c4ccccc4)c4c(n3)-c3cc(Cl)ccc3OC4)cc2N1 -6.75%
COc1cccc(Nc2c(C(N)=O)cnc3c(C)cc(S(=O)(=O)c4cccc(C(=O)N(C)C)c4)cc23)c1 -8.49% [at 25.1 µM, percent change from vehicle, -100% = no light]
CCN(C(=O)c1cn(CC)c(=O)c2cc(OC)c(OC)cc12)c1ccc(C)c(C)c1 -28%
CC1CCc2c(sc3nnn(CC(=O)Nc4ccc(Cl)cc4)c(=O)c23)C1 (stereo not drawn) -2.44%
Cc1ccc(N2CCN(S(=O)(=O)c3ccc4[nH]c5c(c4c3)CCCCC5)CC2)c(C)c1 -26%
O=C(Nc1cccc(-c2nc3cc(Cl)ccc3o2)c1)c1cc([N+](=O)[O-])ccc1N1CCOCC1 -1.33%
CCn1c(=O)c2cc(C(=O)Nc3cc(F)ccc3F)sc2c2ccccc21 7.46%
Cc1ccc(CN2CCC(CNc3ncnc4onc(-c5ccc(F)cc5)c34)CC2)cc1 -19.2%
CC(C)Oc1cc(Nc2nc(N[C@@H](C)c3ccc(F)cn3)ncc2Cl)[nH]n1 -14%
COc1ccc(CN2C(=O)c3oc4ccccc4c(=O)c3C2c2ccc(O)cc2)cc1 (stereo not drawn) -13.3%
CCOc1cccc(C(=O)Nc2ccc(S(=O)(=O)N(Cc3ccccc3)c3ccccc3)cc2)c1 -16.6%
COc1cccc(-c2nc(SCc3cc(=O)c4ccc(C)c(C)c4[nH]3)n[nH]2)c1 -28.9%
CCOc1ccc(NC(=O)Cn2cc(C(=O)c3ccc(CC)cc3)c(=O)c3cc(C)ccc32)cc1 -18.9%
Cc1ccc(Cc2nc3ccccc3nc2SCC(=O)NCCC(C)C)cc1 -9.29%
CCCN(C(=O)c1nn(-c2ccc(OC)cc2)c(=O)c2c1c1ccccc1n2C)c1ccc(CC)cc1 -11.1%
Cc1ccc(Cc2c(C)nc3nc(SCC(=O)NC(C)c4ccccc4)nn3c2C)cc1 (stereo not drawn) -17.5%
COc1ccc(S(=O)(=O)c2nnn(-c3cc(Cl)c(OC)cc3OC)c2C)cc1 -32%
O=C(CSc1nc2c([nH]c3ccccc32)c(=O)n1-c1ccc(F)cc1)NCc1ccccc1 -25.5%
C[C@]12C=CC(=O)C=C1CC[C@H]1[C@@H]3C[C@@H](O)[C@](O)(C(=O)CO)[C@@]3(C)C[C@H](O)[C@@]12F -4.82%
CCOCCCn1c(SCC(=O)Nc2ccc(C(C)C)cc2)nc2c(sc3ccccc32)c1=O -1.18%
Cn1c(=O)c2c(-c3ccccc3)n3c4ccccc4nc(-c4ccccc4)c3c2n(C)c1=O 5.89% [at 11.5 µM, percent change from vehicle, -100% = no light]
COC(=O)c1cc2occc2n1Cc1nc(-c2ccccc2F)oc1C 28.9%
COc1ccc(C(=O)NCC(c2cccnc2)N2CCc3ccccc3C2)cc1OC (stereo not drawn) -14.3%
Cc1ccc(Cl)cc1NC(=O)C(C)n1nnc2sc3c(c2c1=O)CCCC3 (stereo not drawn) -10.2%
Cc1cccc(N2CCN(S(=O)(=O)c3ccc4c(c3)CCCN4C(=O)C3CCC3)CC2C)c1 (stereo not drawn) -5.76%
COc1ccc(Cn2c(=O)[nH]c3cc(C(=O)N4CCN(c5cccc(Cl)c5)CC4)ccc3c2=O)cc1 -11.5%
Cn1c(=O)n(-c2ccc(Br)cc2F)c(=O)c2sc3ccccc3c21 0.458%
CCOc1ccc(NC(=O)CN2C(=O)C(c3ccccc3)=NC23CCC(C)CC3)cc1 (stereo not drawn) -27.8%
CCOC(=O)c1ccc(CN(Cc2ccc(F)cc2)S(=O)(=O)c2cc(C(=O)Nc3cccc(C(F)(F)F)c3)ccc2F)cc1 -3.5%
COc1cc2c(=O)c(S(=O)(=O)c3ccc(F)cc3)cn(Cc3ccc(Cl)cc3)c2cc1OC 10.9%
O=C(NC1CCCCCC1)c1ccc2c(c1)sc1nc(-c3ccc(F)cc3)cn12 -0.271%
CCCN1C(C(=O)c2ccccc2)=C(OC(=O)COc2ccccc2)c2ccccc2S1(=O)=O -37.4%
O=C(Nc1ccc(C(=O)OCc2cc(=O)n3c4c(sc3n2)CCCC4)cc1)c1ccccc1 -4.86%
CC1(C)O[C@@H]2C[C@H]3[C@@H]4CCC5=CC(=O)CC[C@]5(C)[C@@]4(F)[C@@H](O)C[C@]3(C)[C@]2(C(=O)CCl)O1 -12.6%
COc1ccc(C2C(C(N)=O)=C(C)Nc3nc(CCCO)nn32)c(OC)c1 (stereo not drawn) -6.08%
O=C(Cn1cnc2c(oc3ccccc32)c1=O)Nc1ccccc1C(F)(F)F 4.06%
COc1ccc(OC)c(NC(=O)CN(C)S(=O)(=O)c2ccc(C(=O)N3CCOCC3)s2)c1 -13.4%
COc1ccccc1NC(=O)Cn1c(=O)n(Cc2ccccc2)c(=O)c2sc3ccccc3c21 -7.67%
Cc1ccc(-c2nnc(Nc3cccc(Cl)c3)c3ccccc23)cc1S(=O)(=O)N1CCOCC1 19.6% [at 11.5 µM, percent change from vehicle, -100% = no light]
COc1ccc(C)cc1NC(=O)N(Cc1ccc(C)o1)C1CCN(C(C)=O)CC1 -13%
CC(C(C)N1CC(=O)NC(=O)C1)N1CC(=O)NC(=O)C1 (stereo not drawn) -32.8%
Cc1cc(C)c(NC(=O)CSc2nc3ccccc3nc2N2CCCCC2)c(C)c1 10.7%
CCCc1nc2sc3c(N4CCC(C)CC4)ncnc3c2c2c1CCCC2 -5.02%
CC(C)COc1cccc(C(=O)Nc2ccc(-c3nc4ncccc4o3)cc2)c1 4.88%
CCC(C(=O)Nc1cccc(Cl)c1C)n1nc(-c2ccc(C)cc2)ccc1=O (stereo not drawn) -29.6%
O=C(NCc1cccc(Cl)c1)c1cc2ccc3cccnc3c2[nH]1 7.19%
CC(C)COc1ccc(C(=O)Nc2ccc(S(=O)(=O)Nc3ncccn3)cc2)cc1 -6.59%
CCC(=O)Nc1cc(C)c(O)c(-c2nc3ncccc3o2)c1 4.2%
CC1CCN(C(=O)Cn2cc(SCC(=O)NCc3ccccc3Cl)c3ccccc32)CC1 -30.7%
O=C(Nc1cccc(Cl)c1)N1CCSc2ccccc21 -7.29%
CCN(CC)c1cc(C)c2cc(NC(=O)c3cccc(F)c3)ccc2n1 -3.5%
CSc1ccc(CCNC(=O)c2cnn(-c3ccccc3)c2-n2cccc2)cc1 -34.9%
Cc1cccc(NC(=O)c2cc(S(=O)(=O)N3CCc4ccccc43)ccc2F)c1C -32%
COc1ccc(OC)c(-c2cc(C(=O)NCCc3ccccc3)c3c(-c4ccc(C)cc4)[nH]nc3n2)c1 -28.5%
COCCCNC(=O)CS(=O)Cc1nc(-c2cccc(C)c2)oc1C (stereo not drawn) -1.34%
CCOc1ccccc1NC(=O)c1c(NC(=O)COc2ccccc2)sc2c1CCCCC2 -51.5%
CC(NC(=O)CCCC1=NS(=O)(=O)c2ccccc2N1)c1ccccc1 (stereo not drawn) -1.35%
CCCn1cc(S(=O)(=O)c2ccccc2)c(=O)c2cc(F)c(N3CCCCC3)cc21 -6.58%
Cc1ccc(N2C(=O)CSC23C(=O)N(CC(=O)NCCc2ccccc2)c2ccccc23)cc1C (stereo not drawn) -20.1%
COc1ccc(CCNC(=O)c2cnc3ccc(C)cn3c2=O)cc1 11.4%
CCCS(=O)(=O)c1c(S(=O)(=O)CCC)c2cc(CC)ccn2c1C(=O)c1ccc(OC)cc1 -16.6%
Cc1nc(NC(=O)N2CCC[C@@H]2C(N)=O)sc1-c1ccnc(C(C)(C)C(F)(F)F)c1 -7.17%
COc1cccc(Cn2nnc(C(=O)Nc3cc(C)ccc3C)c2N)c1 -29.9%
CCOc1ccc(NC(=O)N2CCC(C(N)=O)(N3CCCCC3)CC2)cc1 -0.0098%
Cc1ccn2c(=O)c(C(=O)NCCc3ccccc3)c(O)nc2c1 11.9%
O=C(CCc1nc(-c2cccs2)no1)Nc1ccccc1[N+](=O)[O-] -0.768%
O=C(Cn1c(=O)n(Cc2ccccc2)c(=O)c2sc3ccccc3c21)NCc1ccccc1Cl -10.5%
O=C(NC1CC(=O)N(c2cccc(F)c2)C1)c1ccc(S(=O)(=O)N2CCCC2)cc1 (stereo not drawn) -14.4%
Cc1ccc2nc(NC(=O)CSc3nccn3Cc3ccc(Cl)cc3)sc2c1 8.09%
Cc1ccc(CNC(=O)CCc2c(C)nc3c(c(C)nn3-c3ccccc3)c2C)cc1 -28.1%
COc1ccc(C(=O)c2oc3ccccc3c2NC(=O)COc2ccccc2)cc1 0.724%
CCN(CC)C(=O)/C(C#N)=C/c1cc(O)c(O)c([N+](=O)[O-])c1 -12.8%
COc1ccc(CCNC(=O)c2sc3nc4n(c(=O)c3c2C)CCCC4)cc1OC 6.85%
CCc1cccc(C)c1NC(=O)CC1Oc2ccc(C)cc2NC1=O (stereo not drawn) -3.19%
O=C(COc1ccc(Cl)cc1)OCc1cc(=O)n2nc(-c3cccs3)sc2n1 6.04%
CC(C)n1c(=N)c(C(=O)NCc2cccnc2)cc2c(=O)n3ccccc3nc21 4.6%
COc1ccc(Cl)cc1NS(=O)(=O)c1cc(Br)cc2c1N(C(=O)C1CC1)CC2 -36.7%
Cc1ccc(NC(=O)C2CCN(c3nc4ccccc4nc3C(F)(F)F)CC2)cc1F 9.72%
COc1ccc(C(=O)Nc2nnc(S(=O)(=O)N3CCCCCC3)s2)cc1OC -26.7%
CCOC(=O)c1cc(-c2ccccc2)n(-c2cccc(C(=O)Nc3cccc(F)c3)c2)c1C -29.2%
COc1cccc(CNC(=O)CCCN2C(=O)CCn3nc(-c4cccn4C)cc32)c1 3.53%
CCOC(=O)c1cccc(NC(=O)Cn2c(=O)nc(-c3ccccc3F)c3cc(Cl)ccc32)c1 -10.7%
